Several values for one entry are separate records, joined by “and”; a condition that tells them apart may be missing. Equal entries are not always repeated. The campaign covered roughly 340,000 compounds. About 6,900 (2%) were called active. Rule as the data show it: active = inhibition above about 30%; inactive = below that, where a call was filed. This is a selection; strong and weak results do not stand in their true shares. Entries without a call were filed so in the source.
target: D(2) dopamine receptor (Homo sapiens) (UniProt P14416); assay: HTS Assay for Allosteric Antagonists of the Human D2 Dopamine Receptor: Primary Screen for Antagonists; conditions: HEK293 TREx D2 cells, calcium flux, dopamine EC80; at 10 µM; stronger effect = higher value; also: 0% is about no effect
Summary of the method: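 Tetracycline-induced HEK293 T-REx cells expressing D2 force-coupled to calcium signalling were dye-loaded, exposed to compound for 180 s, then challenged with an EC80 of dopamine; calcium flux was followed kinetically for a further 180 s.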

Sequence of UniProt P14416 (P14416 whole entry, looked up): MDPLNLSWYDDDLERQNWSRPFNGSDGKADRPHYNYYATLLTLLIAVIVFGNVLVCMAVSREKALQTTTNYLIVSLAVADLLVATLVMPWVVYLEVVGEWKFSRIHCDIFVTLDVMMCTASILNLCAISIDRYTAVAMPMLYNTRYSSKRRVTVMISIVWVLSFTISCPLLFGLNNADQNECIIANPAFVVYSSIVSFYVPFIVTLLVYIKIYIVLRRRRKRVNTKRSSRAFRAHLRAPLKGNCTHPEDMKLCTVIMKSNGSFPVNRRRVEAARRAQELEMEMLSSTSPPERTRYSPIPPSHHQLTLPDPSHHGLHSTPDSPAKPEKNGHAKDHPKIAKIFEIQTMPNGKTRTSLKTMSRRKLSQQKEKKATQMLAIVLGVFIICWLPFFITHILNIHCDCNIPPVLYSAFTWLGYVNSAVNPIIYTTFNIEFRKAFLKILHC

Row | SMILES | inhibition
1 | CCOC(=O)c1c(C)oc2nc(C)nc(NCCc3ccc(OC)c(OC)c3)c12 | -10.2%
2 | COC(=O)c1sc(N2C(=O)c3oc4ccc(C)cc4c(=O)c3C2c2ccc(O)c(OC)c2)nc1C (configuration not stated) | -5.19%
3 | CCCCC(CC)CNC(=O)CCCCn1c(=O)[nH]c2ccsc2c1=O (configuration not stated) | 4.93%
4 | COC(=O)c1ccc(C(=O)OC)c(NC(=O)c2c(-c3ccccc3)noc2C)c1 | 12.5%
5 | COc1ccc(CCNc2nc(SCc3ccccc3F)nc3ccccc23)cc1OC | 12.4%
6 | COc1cc(CN(C(=O)Nc2cccc(Cl)c2)c2ccccn2)cc(OC)c1OC | 11.4%
7 | COC(=O)c1nnn(CC(=O)Nc2c(C)cccc2C)c1N | -10.8%
8 | CC(=O)c1cccc(NC(=O)CCn2nc(C)c(S(=O)(=O)N(C)C)c2C)c1 | 3.58%
9 | COc1ccccc1CCN1CCCC(CN(C)C(=O)c2ccoc2)C1 (configuration not stated) | active: 41.9%
10 | CC(C)c1ccc(S(=O)(=O)N2CCN(CC(=O)Nc3ccccc3C(F)(F)F)CC2)cc1 | 6.37%
11 | CC(C)CCNC(=O)c1ccc2nc(CCc3ccccc3)oc2c1 | 8.67%
12 | CC1=C(C(N)=O)C(c2cccc(Br)c2)n2nc(SCc3ccccc3Cl)nc2N1 (configuration not stated) | 2.43%
13 | CCOc1ccc(CCNC(=O)c2cc3sccc3n2CC)cc1OCC | -4.49%
14 | Fc1ccc(CSc2nncn3c2cc2occc23)c(Cl)c1 | -8.32%
15 | Cc1cc(C)c2oc(-c3ccc(NC(=O)COc4ccccc4C)cc3)nc2c1 | 6.08%
16 | COCCSc1ccccc1C(=O)Nc1ccc(Cl)cc1 | active: 57.7%
17 | Cc1nn(CC(=O)NCCc2ccccc2)c(=O)c2nn(-c3ccccc3)c(C)c12 | -13.5%
18 | COc1cc(C2C(C(=O)Nc3ccc(Cl)cc3)=C(C)Nc3nc(SC)nn32)cc(OC)c1OC (configuration not stated) | -8.11%
19 | Cc1ccc(N(C)S(=O)(=O)c2ccc(-c3coc(C)n3)cc2)cc1 | 3%
20 | CC1=C(c2ccc(C)c(C)c2)S(=O)(=O)N=C1N1CCC(C(=O)NCc2ccccc2C)CC1 | -10.7%
21 | Cc1cccc(-c2noc(-c3ccc(NCc4ccccc4)c([N+](=O)[O-])c3)n2)c1 | -28.5%
22 | CC(CCc1ccccc1)NC(=O)c1cnc(Cl)c(Cl)c1 (configuration not stated) | active: 43.2%
23 | Cc1ccc(NC(=O)CN2C(=O)COc3ccc(S(=O)(=O)N4CCOCC4)cc32)cc1N(C)C | -8.92%
24 | CCCCCOc1ccccc1CN1C(=O)C(=O)c2cc(C)ccc21 | 5.49%
25 | Cc1ccc(/C=C/C(=O)N2CCC(c3nc4ccccc4o3)CC2)cc1 | -22%

Row | SMILES | inhibition
26 | COc1ccc(NC(=O)c2c(NCc3ccc(OC)c(OC)c3OC)sc3c2CCC3)c(OC)c1 | -25.3%
27 | Cc1ccc(-n2nc3c(N4CCC(C(=O)NC5CCCCC5)CC4)nnc(C)c3c2C)cc1 | -1.81%
28 | Cc1cc2oc(C(=O)Nc3ccc(S(=O)(=O)N4CCC(C)CC4)cc3)cc(=O)c2cc1C | 22.8%
29 | CC(C)Cc1ccc(S(=O)(=O)NCc2nc3cccnc3n2Cc2ccccc2)cc1 | -3.44%
30 | COc1ccc(-n2ncc(C(=O)N3CCN(C(=O)c4ccco4)CC3)c2C2CCN(C(=O)OC(C)(C)C)CC2)cc1 | -7.97%
31 | COc1ccc(-c2ccc(CNCCCSc3nnnn3C)o2)cc1Cl | 1.89%
32 | CCn1ccc2cc(S(=O)(=O)N3CCCN(C(=O)Nc4cccc(SC)c4)CC3)ccc21 | 16%
33 | CCCCN(C)S(=O)(=O)c1ccc(NC2=NS(=O)(=O)c3ccccc32)cc1 | 8.8%
34 | Cc1ccc(CNC(=O)C2CCC(CNS(=O)(=O)c3ccc(C)cc3)CC2)cc1 (configuration not stated) | 5.3%
35 | CCN(CC)S(=O)(=O)c1cc(NC(=O)C2CCN(c3ncnc4sc(C)c(C)c34)CC2)ccc1Cl | active: 36.5%
36 | COc1ccc(-n2ccnc2SCC(=O)Nc2cccc(OC)c2)cc1 | -21.2%
37 | Cc1ccc(NC(=O)Cn2cc(C(=O)c3ccco3)c3ccccc32)cc1C | 13.2%
38 | Cc1cc(OC(C)C(=O)N2CCC(c3nc4ccccc4o3)CC2)ccc1Cl (configuration not stated) | 1.23%
39 | COc1cccc(CNC(=O)Cn2nc(-c3ccc(C)cc3)ccc2=O)c1 | 3.15%
40 | Cc1ccc(N(C)C(CNS(=O)(=O)c2ccccc2)c2ccccc2)cc1 (configuration not stated) | -5.03%
41 | COc1ccccc1NC(=O)CSc1ccc(-c2ccccn2)nn1 | 6.14%
42 | Cc1ccc(CSCCNC(=O)C2CCN(S(=O)(=O)Cc3ccccc3)CC2)cc1 | 15.7%
43 | COc1cccc(OC(=O)CSc2nnc(-c3cccs3)o2)c1 | 26%
44 | Cc1cc2nn(-c3ccc(F)cc3)nc2cc1NC(=O)c1cccc([N+](=O)[O-])c1C | 12.6%
45 | CC(=O)Nc1ccc(Nc2nc3c(S(=O)(=O)c4cc(C)ccc4C)nnn3c3ccsc23)cc1 | -12%
46 | Clc1cccc(-c2nc3ccccn3c2Nc2ccc3c(c2)OCCO3)c1 | 2.87%
47 | COC(=O)c1ccc(Nc2nc(-c3ccccc3Cl)nc3ccccc23)cc1 | -4.95%
48 | COc1ccc(N2C(=O)CSC23C(=O)N(CC(=O)Nc2ccccc2F)c2ccccc23)cc1 (configuration not stated) | -1.23%
49 | Cc1cccc(C(=O)Nc2cc3nn(-c4ccc(C(C)C)cc4)nc3cc2C)c1 | 6.75%
50 | CCCCCCNC(=O)c1c[nH]c2ccc(S(=O)(=O)N(C)c3ccc(C(C)C)cc3)cc2c1=O | -12.9%

Row | SMILES | inhibition
51 | N#C/C(=C/c1ccccc1Cl)c1nc2ccccc2c(=O)[nH]1 | 0.836%
52 | Cc1ccc(Cl)cc1N(C)C(=O)c1cc2c(Cl)nc3ccccc3c2s1 | -12.5%
53 | COc1ccc(N2CCN(C3(c4ccccc4)C(=O)c4ccccc4C3=O)CC2)cc1 | -4.77%
54 | Cc1ccc(Cn2c(CO)cnc2SCC(=O)NCc2ccccc2Cl)cc1 | -7.97%
55 | O=C(C1CCC(Cn2c(=O)c3sccc3n(Cc3cccc(F)c3)c2=O)CC1)N1CCOCC1 (configuration not stated) | 11.1%
56 | Cc1cccn2c(=O)c3cc(C#N)c(=O)n(-c4nnc(SCc5ccc(F)cc5)s4)c3nc12 | 4.12%
57 | CSc1ccc(CN2CCCC(CNC(=O)c3ccc(F)cc3)C2)cc1 (configuration not stated) | active: 40.7%
58 | Cc1cc(C)c(NC(=O)CSc2nc(=O)n(Cc3cccnc3)c3c2CCC3)c(C)c1 | 11.4%
59 | COc1ccccc1Nc1ncc2c(n1)CCN(Cc1cc(F)cc(F)c1)C2 | -9.76%
60 | Cn1c(SCC(=O)Nc2nc3ccccc3s2)ncc(C(=O)Nc2ccc(Cl)cc2)c1=O | -20.6%
61 | CCOCCCNC(=O)c1cn(CC(C)C)c(=O)c2c1c1ccccc1n2C | -8.92%
62 | COc1cccc(NC(=O)Cn2nnc(C(=O)NCc3ccc4c(c3)OCO4)c2N)c1 | 7.95%
63 | CCN1CCN(c2ncc3c(n2)CCN(Cc2cccc(F)c2F)C3)CC1 | 7.81%
64 | COC(=O)c1ccccc1NC(=O)c1nn(C)c2c1COc1ccccc1-2 | 15.9%
65 | CCOc1ccc(NC(=O)CCc2c(C)nc3nc(-c4cc(OC)cc(OC)c4)nn3c2C)cc1 | -8.67%
66 | COc1cccc(NC(=O)/C(C#N)=C/c2c(C)n(Cc3ccccc3)c3ccccc23)c1 | -10%
67 | CCOC(=O)c1c(C)[nH]c(C)c1S(=O)(=O)N1CCCC(C(=O)Nc2cccc(CC)c2)C1 (configuration not stated) | 13.3%
68 | c1ccc(-c2cnc(CN3CCN(c4ccccc4)CC3)o2)cc1 | active: 77.7%
69 | O=C(Nc1ccc(Cl)c(C(F)(F)F)c1)c1nc2ccccc2nc1N1CCCCC1 | -18.1%
70 | COc1ccc(-c2[nH]c3c(c2-c2c(-n4cccc4)n(C)c(=O)[nH]c2=O)c(=O)[nH]c(=O)n3C)cc1F | 2.86%
71 | COc1ccc(-n2nnc(-c3nsc(NC(=O)c4cccc(C)c4)n3)c2C)cc1OC | -5.08%
72 | COc1ccccc1Nc1nc(N)nc(N)c1S(=O)(=O)c1ccccc1 | -12.3%
73 | Cc1ccc(-c2c3c(=O)n(C)c(=O)n(C)c3c3cnc4ccccc4n23)cc1 | 11.3%
74 | Cc1ccc(S(=O)(=O)CC(=O)Nc2nc3c(C)cccc3s2)cc1 | -1.33%
75 | Cc1ccc(N2CCN(Cc3nnc(-c4ccccc4F)o3)CC2)c(C)c1 | 7.44%

Row | SMILES | inhibition
76 | CSc1ccc(/C=C/c2nc3ccccc3n2S(=O)(=O)c2ccc(Br)cc2)cc1 | -7.95%
77 | COc1ccc(/C=C/C(=O)Nc2cccc(F)c2)cc1S(=O)(=O)N1CCOCC1 | active: 55.6%
78 | CCOC(=O)c1cccc(NS(=O)(=O)c2ccc(-c3coc(C)n3)cc2)c1 | -7.73%
79 | Cc1cc(C)c(NC(=O)C2CCN(C(=O)N3CCOc4ccccc43)CC2)c(C)c1 | 26.4%
80 | COc1cc2c(cc1NC(=O)COc1ccc(Br)cc1)oc1ccccc12 | 17.4%
81 | COc1ccc(-c2cc(C(F)(F)F)n3ncc(-c4ccccc4)c3n2)cc1 | 0.861%
82 | COC(=O)c1ccc2c(=O)n(CCc3ccc(S(N)(=O)=O)cc3)c(SCC(=O)C(C)(C)C)nc2c1 | -24.9%
83 | CCc1cccc(N2C(=O)CS(=O)(=O)C23C(=O)N(Cc2ccccc2)c2ccc(C)cc23)c1 (configuration not stated) | -3.17%
84 | Cc1ccc(Nc2nc3ccccc3nc2-n2nc(C)cc2C)c(Cl)c1 | 15.1%
85 | CN(C(=O)c1ccncc1)c1nnc(-c2ccccn2)s1 | active: 34.7%
86 | Cc1cccc(C(=O)N2c3ncnn3C3(CCCCC3)[C@@H]3CCCC[C@@H]32)c1 | -2.77%
87 | CSc1ccc(CNC(=O)c2sc3ncnc(N(C)C4CCCCC4)c3c2C)cc1 | -21.2%
88 | Cc1cccc(Nc2cc(C)nc(-n3nc(C)cc3C)n2)c1 | -15.2%
89 | CCOc1ccc(CN2C(=O)C(=O)c3cccc(C)c32)cc1OC | 1.89%
90 | Cc1c(C(=O)Nc2ccc(F)cc2)oc2ccc(S(=O)(=O)N3CCCCCC3)cc12 | -1.7%
91 | CCCCOc1ccccc1Cn1c(=O)sc2ccccc21 | -8.51%
92 | Cc1cccc(NC(=O)CN(C)S(=O)(=O)c2ccc3c(c2)CCC(=O)N3)c1C | -8.4%
93 | CCOc1ccc(C(=O)Nc2cccc(NC(=O)c3ccc(Cl)cc3Cl)c2)cc1 | -1.19%
94 | COc1ccccc1CNc1nc2ccccc2c2nc(-c3cccc(C)c3)nn12 | 1.39%
95 | Clc1ccc2c(c1)CCc1cccnc1C2=C1CCNCC1 | active: 53.6% and active: 30.2%
96 | Cc1cccc(CCNC(=O)c2cc3c(=O)[nH]c4ccc(C)cc4c3s2)c1 | 10.4%
97 | CCn1cc(C(=O)NCCN(CC(C)C)CC(C)C)c(=O)c2cc(S(=O)(=O)N(C)C3CCCCC3)ccc21 | -4.55%

Source: PubChem BioAssay AID485344 (National Center for Advancing Translational Sciences (NCATS), 2010)
